# Laboratory results: PubChem BioAssay AID463173 (ICCB-Longwood Screening Facility, Harvard Medical School, 2010)
# About 4,300 (8.3%) of roughly 52,000 compounds were called active. Cut-off read from the data, not from the text of the source: active = survival mostly below about 52% (no sharp cut-off); inactive = mostly above about 56%. The list shows a part of the results.
# Test system: DeltatarO mutant
# Experiment: growth inhibition of S. aureus wild type versus tarO mutant, primary screen, teichoic acid synthesis inhibitors, RN4220, OD600 (AID 463173)
# Conditions: OD600, 18 h, stronger effect = lower value, screened at 18.75 µg/mL (by protocol)
row,Compound,survival
1,Cc1ccccc1CCNC(=O)C1CCN(c2nc3ccccc3nc2C(F)(F)F)CC1,inactive: 72%
2,CCOc1ccc(C(=O)NCCn2cc(SCC(=O)Nc3ccccc3)c3ccccc32)cc1,inactive: 71%
3,COC(=O)c1cc(NC(=O)c2sc3ncn(Cc4cccc(F)c4)c(=O)c3c2C)cc(C(=O)OC)c1,inactive: 92%
4,COc1cc(CN(C(=O)c2cccc(C)c2)c2ccccn2)cc(OC)c1OC,inactive: 79%
5,Cc1ccc(-n2c(SCC(=O)NCc3ccccc3)nc3c([nH]c4ccccc43)c2=O)cc1,inactive: 63%
6,O=C(Cn1nc(C(F)(F)F)c2c1CCC2)Nc1ccc(Cl)cc1,inactive: 54%
7,Cc1cc(C)c2c(CC(=O)Nc3ccc(S(=O)(=O)Nc4ncccn4)cc3)coc2c1,inactive: 83%
8,CCN(Cc1ccccc1)C(=O)CN1C(=O)COc2ccc(S(=O)(=O)N(CC)CC)cc21,inactive: 80%
9,COC(=O)c1ccc[nH]c1=S,inactive: 100%
10,CC1=C(C(=O)Nc2ccc(Cl)cc2)C(C(C)C)n2nc(SCc3ccc(Cl)cc3)nc2N1 (stereo not given),inactive: 65%
11,O=C(NCC1CCN(Cc2cccc(Cl)c2)CC1)c1cc2ccc3cccnc3c2[nH]1,inactive: 75%
12,CC(C)C(=O)Nc1ccc(NC(=O)c2ccccc2)nc1,inactive: 87%
13,O=C(N1CCCCC1)N1CCC(c2nc3ccccc3[nH]2)CC1,inactive: 95%
14,Cc1ccc(OC(=O)CSc2nnc(-c3cccs3)o2)cc1C,inactive: 68%
15,O=c1nc(N2CCOCC2)nc(N2CCOCC2)[nH]1,inactive: 100%
16,CCn1cc(C(=O)NCCc2ccc(OC)c(OC)c2)c(=O)c2cc(S(=O)(=O)N3CCC(C)CC3)ccc21,inactive: 86%
17,CCOc1ccc(-n2c(SCC(=O)N3CCCCCC3)nc3c([nH]c4ccccc43)c2=O)cc1,inactive: 106%
18,CCOc1ccc(N(CC(=O)Nc2ccccc2CC)S(=O)(=O)c2c(C)[nH]c(=O)[nH]c2=O)cc1,inactive: 79%
19,Cc1ccc(NC(=O)c2sc3nc[nH]c(=O)c3c2C)cc1Cl,inactive: 102%
20,Clc1ccc2c(c1)CN(C1CCCCC1)CO2,inactive: 98%
21,CCOc1ccccc1NC(=O)Cn1c(=O)n(Cc2ccco2)c(=O)c2ccc(C(=O)NC3CCCC3)cc21,inactive: 82%
22,C/C(=N\O)C(=O)NCc1cccnc1,inactive: 73%
23,N=C1SCC(=O)N1c1ccc(Cl)cc1,inactive: 109%
24,COc1ccc(Cl)cc1NC(=O)Cn1nc(Cc2ccncc2)c2ccccc2c1=O,inactive: 62%
25,Cc1cc(F)ccc1NC1(c2ccccc2)C(=O)c2ccccc2C1=O,inactive: 79%
